Test results from paper PMC4336329 (PLoS ONE, 2015).
Among all 310,000 compounds or so, about 2,200 (0.71%) showed an effect of 50% or more. Effects have a minus sign here. The list shows a part of the results.

molecular target: human ether-à-go-go-related gene (hERG) potassium channel (human, UniProt Q12809); assay: primary screen, population patch clamp on CHO cells stably expressing hERG
Sequence (Q12809 whole entry, looked up): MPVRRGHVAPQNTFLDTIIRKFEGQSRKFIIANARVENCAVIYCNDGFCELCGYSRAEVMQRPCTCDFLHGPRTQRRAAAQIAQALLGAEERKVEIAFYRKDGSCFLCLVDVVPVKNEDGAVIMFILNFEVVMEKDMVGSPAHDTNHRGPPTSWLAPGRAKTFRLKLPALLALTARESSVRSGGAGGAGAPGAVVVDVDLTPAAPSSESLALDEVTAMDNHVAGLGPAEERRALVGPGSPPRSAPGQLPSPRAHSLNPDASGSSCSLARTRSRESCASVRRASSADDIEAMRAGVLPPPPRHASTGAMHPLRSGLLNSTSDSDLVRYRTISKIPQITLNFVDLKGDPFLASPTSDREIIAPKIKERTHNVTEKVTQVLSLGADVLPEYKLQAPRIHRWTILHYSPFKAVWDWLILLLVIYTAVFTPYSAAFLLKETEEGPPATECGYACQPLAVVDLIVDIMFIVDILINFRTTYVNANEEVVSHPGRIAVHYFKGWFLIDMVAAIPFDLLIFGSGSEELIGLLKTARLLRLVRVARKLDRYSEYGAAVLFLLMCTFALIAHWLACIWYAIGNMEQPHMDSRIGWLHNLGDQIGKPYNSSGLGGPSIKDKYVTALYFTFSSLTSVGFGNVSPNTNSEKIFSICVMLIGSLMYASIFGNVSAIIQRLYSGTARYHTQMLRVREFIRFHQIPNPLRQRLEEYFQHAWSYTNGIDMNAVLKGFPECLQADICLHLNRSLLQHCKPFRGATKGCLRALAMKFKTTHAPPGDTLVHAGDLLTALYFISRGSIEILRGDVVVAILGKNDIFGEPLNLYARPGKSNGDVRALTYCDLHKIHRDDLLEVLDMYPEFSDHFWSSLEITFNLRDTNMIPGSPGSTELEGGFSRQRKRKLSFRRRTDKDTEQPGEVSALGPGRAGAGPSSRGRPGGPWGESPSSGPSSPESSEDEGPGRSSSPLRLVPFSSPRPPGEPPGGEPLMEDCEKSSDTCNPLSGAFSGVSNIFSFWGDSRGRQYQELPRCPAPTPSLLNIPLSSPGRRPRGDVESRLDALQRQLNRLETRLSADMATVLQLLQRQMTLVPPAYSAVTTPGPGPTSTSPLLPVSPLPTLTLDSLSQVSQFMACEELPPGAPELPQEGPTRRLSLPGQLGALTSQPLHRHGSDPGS

Row | SMILES | hERG current change (%, negative = inhibition) at 1uM
1 | COc1ccc(/C=C/C(=O)N(C)Cc2cccs2)cc1S(=O)(=O)N1CCOCC1 | 4.47%
2 | CCCCCn1c(=O)[nH]c2cc(C(=O)NC3CCN(Cc4ccccc4)CC3)ccc2c1=O | 11.4%
3 | COc1ccccc1NC(=O)C(C(C)C)N1C(=O)c2ccccc2C1=O (stereo not shown) | 16.7%
4 | CN1CC(=O)N(CC(=O)NCCc2ccc(F)cc2)c2ccccc2C1=O | 7.72%
5 | N/C(Cc1cccs1)=N\OC(=O)COc1ccccc1Cl | 15.3%
6 | O=C(O)C1CC=CCC1C(=O)NCCCN1CCCC1=O (stereo not shown) | 7.05%
7 | COc1ccc2[nH]cc(CCNS(=O)(=O)c3ccc(C)cc3)c2c1 | -8.15%
8 | CCOc1ccccc1N(CC(=O)NCCSc1ccccn1)S(=O)(=O)c1ccc(C)cc1 | 2.87%
9 | CCOC(=O)C1=C(C)C2C3C(=O)N(c4ccc(C)cc4C)C(=O)C3C1(C)C1C(=O)N(c3ccc(C)cc3C)C(=O)C21 (stereo not shown) | 5.73%
10 | CCOC(=O)c1c(NC(N)=O)sc(C)c1C | 3.81%
11 | CC/C(=N\NC(=O)OC)c1ccc(OC(F)F)cc1 | 6.73%
12 | Cc1cc(-c2n[nH]c(=S)n2/N=C/C=C/c2ccco2)n[nH]1 | 17%
13 | CCN1CCN(C(c2nnnn2Cc2ccc3c(c2)OCO3)C(C)C)CC1.Cl (stereo not shown) | -1.74%
14 | C/C(=N\NC(=O)c1nc2ccccn2c1C)c1ccc2c(c1)OCO2 | -6.32%
15 | O=C(OCc1ccccc1Cl)c1cccnc1Cl | -13.8%
16 | Cc1cc(C=O)c(C)n1-c1ccc(N2CCOCC2)cc1 | 1.86%
17 | COc1ccc(-n2cnc3c(sc4nc(N5CCOCC5)c5c(c43)CCCC5)c2=O)cc1 | 15.2%
18 | C=C(C)CSc1nnc([C@@H](N)Cc2ccccc2)o1.Cl | 12.9%
19 | Cc1cc(/C=c2/sc3nc4ccccc4n3c2=O)c(C)n1-c1ccccn1 | 0.357%
20 | Cc1cc(NC(=O)Cn2nc(C)c([N+](=O)[O-])c2C)no1 | 4.75%
21 | COc1cccc(-n2c(SC3CCOC3=O)nc3ccccc3c2=O)c1 (stereo not shown) | 3.61%
22 | COc1ccc(-c2nc3cc(C)ccn3c2NCc2ccc3c(c2)OCO3)cc1 | -6.34%
23 | CC(=O)NC1=NC(=O)/C(=C/N2CCOCC2)S1 | 12.1%

Row | SMILES | hERG current change (%, negative = inhibition) at 1uM
24 | Cn1cccc1C(=O)NCC1CCCCC1 | 13.1%
25 | O=C(O)C1CCC1C(=O)Nc1nc(-c2ccc(Cl)s2)cs1 (stereo not shown) | 12.4%
26 | COc1cc(Br)c(Br)cc1N | 12.4%
27 | Cc1ccc(Cn2c(-c3nonc3N)nc3ccccc32)cc1 | 9.1%
28 | CCCCNC(=O)COC(=O)c1ccc(NC(C)=O)cc1 | 4.05%
29 | CCN(CC(=O)Nc1ccc2c(c1)OCCO2)C(=O)/C=C/c1ccc(F)cc1 | 16.8%
30 | Cc1cc(C(=O)NNC(=O)c2ccc(C)s2)c(C)o1 | 4.08%
31 | Cc1cc(O)c(Sc2ccc(Cl)cc2)c(=O)[nH]1 | 18.7%
32 | COc1ccc(CCNC(=O)c2ccc(CNS(=O)(=O)c3ccccc3)cc2)cc1OC | 8.47%
33 | C=CCCCCCCCCC(=O)Nc1ncccn1 | 16.1%
34 | CCCn1c2ccccc2c2cnn(CC(=O)NC3CCCC(C)C3C)c(=O)c21 (stereo not shown) | 11.4%
35 | Cc1ccc(C(=O)Nc2nc(=O)n(C)s2)cc1 | 22.3%
36 | CCOC(=O)C1CCN(S(=O)(=O)c2cccc(-c3cn4ccccc4n3)c2)CC1 | -9.7%
37 | COc1ccc(NS(=O)(=O)c2cc(-c3cnc(C4CC4)o3)ccc2C)cc1 | 10.7%
38 | Cc1cc(Cl)ccc1NC(=S)NCC(O)c1ccccc1 (stereo not shown) | 10.6%
39 | NC(=O)C1CCN(C(=O)CN2CCc3ccccc32)CC1 | 9.07%
40 | Cc1ccccc1OCCCSc1nc2ccccc2[nH]1 | 17.2%
41 | C=CCNC(=O)C1=NN(c2c(F)c(F)cc(F)c2F)C(=O)CC1 | 21.6%
42 | Cc1ccc(C(=O)C2=C(O)C(=O)N(c3ncccn3)C2c2ccc(Cl)cc2)o1 (stereo not shown) | 7.92%
43 | COc1ccccc1CN(Cc1cc2cc3c(cc2[nH]c1=O)OCCO3)Cc1nnnn1Cc1ccco1 | 11.5%
44 | COc1ccc(S(=O)(=O)NCC2CCCN(Cc3ccccc3C)C2)cc1 (stereo not shown) | -12.4%
45 | CC1CCCN(c2nc3c(c(=O)[nH]c(=O)n3C)n2CCCc2ccccc2)C1 (stereo not shown) | -19.5%
46 | Cc1cc(SCc2cccc([N+](=O)[O-])c2)nc(=O)[nH]1 | 21.6%

Row | SMILES | hERG current change (%, negative = inhibition) at 1uM
47 | [O-][N+]1=C(c2cccs2)CN(O)C1 | 10.3%
48 | O=C(Nc1nc2c(Br)cccc2s1)C1CC1 | 6.57%
49 | COCCCn1c(=O)c2sccc2n2c(CCCC(=O)NCc3ccc(F)cc3)nnc12 | 11.4%
50 | CCCN(CC(=O)Nc1ccc(F)c(F)c1F)Cc1cc(=O)n2ccsc2n1 | -17.8%
51 | CSc1sc(C(=O)NNC(=O)c2ccc(Cl)cc2)c2c1C=CCC2 | 12.1%
52 | O=C(O)CCCCCNC(=O)c1ccncc1 | -3.96%
53 | O=C(CCCc1c[nH]c2ccccc12)NCc1cccs1 | 21.4%
54 | O=C(CSc1nc(-c2ccco2)cc(C(F)(F)F)n1)NCCc1ccccc1 | 5.96%
55 | Cc1cc(C)c(S(=O)(=O)c2ccccc2)c(N2CCOCC2)n1 | 12.2%
56 | CCC(C)NCC(=O)Nc1sc2c(c1C(N)=O)CCC2 (stereo not shown) | 9.8%
57 | COc1ccc(CN(C(=O)Cc2cccs2)C(C(=O)NC2CCCC2)c2ccncc2)cc1 (stereo not shown) | 6.72%
58 | O=C(Nc1ccc(F)c([N+](=O)[O-])c1)c1cccs1 | 5.25%
59 | CCn1c(CCC(N)=O)nnc1SCC(=O)Nc1cccc(S(=O)(=O)N2CCCC2)c1 | -5.71%
60 | C=CCOc1ccc(S(C)(=O)=O)cc1 | 6.2%
61 | CC1=C(C(=O)Nc2ccc(C)cc2C)C(c2cccc(Cl)c2)n2nc(C(=O)OC(C)C)nc2N1 (stereo not shown) | -1.89%
62 | Cc1ccccc1-c1nc(CN2CCCC(C(=O)NCCCN3CCOCC3)C2)c(C)o1 (stereo not shown) | 1.58%
63 | Cc1ccc(CN(Cc2ccco2)C(=S)NCC(=O)NCc2cccnc2)cc1 | 6.08%
64 | CCOc1ccc(NC(=S)N2CCC(NC(=O)c3ccccc3C)CC2)cc1 | 6.67%
65 | COCC(=O)Nc1nnc(COc2ccc(Cl)cc2)s1 | 3.99%
66 | CCOC(=O)CN1C(=O)C(C)(C)Oc2ccc(C(=O)Nc3ccccc3)cc21 | 2.32%
67 | CCCCn1cnc2c(cnn2-c2ccc(Cl)cc2)c1=O | 2.43%
68 | Cc1ccc(NC(=O)c2cccc(N3C(=O)C4C5C=CC(C5)C4C3=O)c2)cc1C (stereo not shown) | 6.94%
69 | CCc1ccc(CN2CCCC(C(=O)c3sccc3C)C2)o1 (stereo not shown) | 1.88%

Row | SMILES | hERG current change (%, negative = inhibition) at 1uM
70 | Cc1ccc(-n2ncc3c2CCCC3NC(=O)CCc2c(C)noc2C)cc1C (stereo not shown) | 7.03%
71 | O=C(NCCC1CCCCN1S(=O)(=O)c1ccc(F)cc1)C(=O)NCC1CCCO1 (stereo not shown) | 2.16%
72 | CC(=O)N1CCN(C(=O)c2ccc(Cl)c(NC(=O)c3cccs3)c2)CC1 | 0.959%
73 | CCCN(CCC)C(=O)c1cn(C)c2ccc(S(=O)(=O)N3CCCC3)cc2c1=O | 13.4%
74 | O=C(Cn1cc(C(=O)c2ccco2)c2ccccc21)NC1CCCC1 | 12%
75 | CCOC(=O)C1CCN(Cc2ccc(F)c(Br)c2)CC1 | 2.48%
76 | O=C(CCCc1nc2ccccc2s1)NNC(=O)CCN1CCN(Cc2ccccc2)CC1 | -2.98%
77 | O=C(NC1CCS(=O)(=O)C1)C12CC3CC(CC(C3)C1)C2 (stereo not shown) | 12.3%
78 | CCS(=O)(=O)N1CCC(C(=O)NC2CCCCC2)CC1 | 6.24%
79 | O=C(NC1CCCC1)c1cnn2c(C(F)(F)F)cc(-c3ccc4c(c3)OCO4)nc12 | 3.52%
80 | O=C(Nc1ccon1)c1ccccc1F | 6.98%
81 | COc1ccc(-c2nc3ccc(C(=O)NCC(OC)OC)cc3nc2-c2ccc(OC)c(OC)c2)cc1OC | 8.94%
82 | CNC(=O)c1ccc(NC(=O)c2ccc3c(=O)n4c(nc3c2)CCC4)cc1 | 13.5%
83 | Cc1ccc(C2CC(=O)C(C=NCCN3CCN(C(=O)Cc4ccccc4)CC3)=C(O)C2)cc1 (stereo not shown) | 1.09%
84 | O=C(NCCCN1CCCC1=O)c1c(O)nc2sccn2c1=O | 8.35%
85 | COc1ccc(C(=O)N/N=C(\N)c2cc3ccccc3oc2=O)cc1 | 21.4%
86 | CCOc1ccc2nc(NC(=O)C3CSC4(C)CCC(=O)N34)sc2c1 (stereo not shown) | 6.89%
87 | O=C1CC(N2CCN(c3ccccc3)CC2)C(=O)N1c1ccc2c(c1)OCCO2 (stereo not shown) | 8.82%
88 | Cc1ccc(C(=O)N/C(=C\C=C\c2ccccc2)C(=O)NCc2ccco2)cc1 | -10.3%
89 | CC1CCN(C(=O)C(C)c2ccc([N+](=O)[O-])cc2)CC1 (stereo not shown) | 4.58%
90 | CSc1ccccc1N=CC1=C(O)CC(C)(C)CC1=O | 6.67%
91 | CC(C)c1cc(C(=O)Nc2ccc3c(c2)OCO3)no1 | -0.0039%
